According to PubChem BioAssay AID485281 (National Center for Advancing Translational Sciences (NCATS), 2010):
The campaign covered roughly 350,000 compounds. About 260 (0.074%) were called active. Inconclusive results, whose numbers are uncertain, are shown with a selection of clear calls. The call rests on the fitted dose curve; in most records, active means well fitted inhibition curve with a large enough effect; inconclusive means small, poorly fitted or top-dose-only effect; inactive means no such curve, though single readings can be large or run the other way. Where the call is inconclusive, the potency comes from a doubtful curve fit.
Further: nearly all actives have a fitted effect of over 20% in size.
On the % scale 0 is the no-effect control and ±100 the full control effect; potency means the concentration at half of the fitted maximal effect; tags describe the fitted curve by direction and shape.

These compounds were tested against Ferritin light chain (Equus caballus) (UniProt P02791) (assay: qHTS Assay for Identification of Novel General Anesthetics). Details: apoferritin/1-aminoanthracene competitive binding, fluorescence; activity change, negative = displacement: at 77.5 µM (top of the series).
Chain of UniProt P02791 (P02791 whole entry, looked up): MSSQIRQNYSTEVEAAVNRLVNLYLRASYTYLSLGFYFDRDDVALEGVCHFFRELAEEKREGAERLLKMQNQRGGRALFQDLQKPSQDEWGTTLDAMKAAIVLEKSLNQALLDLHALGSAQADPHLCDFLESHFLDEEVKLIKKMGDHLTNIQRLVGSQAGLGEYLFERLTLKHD
Outline: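 Horse-spleen apoferritin (10 uM) was mixed with 50% saturated 1-aminoanthracene in PBS, exposed to compounds for 10 min at room temperature, and read for fluorescence (ex 380 nm, em 535 nm). Competitive displacement was fitted with a four-parameter Hill equation.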
For `COc1ccc(N2C(=O)C(Cl)=C(NCc3ccccc3)C2=O)cc1`, the Potency was inconclusive: 31.6 µM [inhibitor, partial curve].
`N#C/C(=C\c1ccc(N2CCOCC2)o1)c1ccccc1` was tested, and the “activity change, negative = displacement” value was inactive: -11.5%.
For `CC1CCN(S(=O)(=O)c2ccc(NC(=S)NC(=O)c3ccc(Cl)cc3)cc2)CC1`, the “activity change, negative = displacement” value was inactive: -10.6%.
`Cc1cccc(CNC(=O)c2cnc3sc(N4CCCCC4)nn3c2=O)c1` was tested, and the Potency was inconclusive: 7.94 µM [inhibitor, full curve, poor fit].
For `Cc1nn(C)c(C)c1NC(=O)CCl`, the “activity change, negative = displacement” value was inactive: -9.8%.
`O=C(N/N=C/c1cccc(O)c1)c1ccc(NC(=O)C2CCCCC2)cc1` was tested, and the Potency was inconclusive: 7.94 µM [inhibitor, full curve].
For `CC(=O)N1CCN=C1SCc1cccc(C(F)(F)F)c1`, the Potency was inconclusive: 22.4 µM [inhibitor, partial curve].
In the case of `Cc1ccc2cccc(OCC(=O)c3cc(C)n(Cc4ccco4)c3C)c2n1`, the Potency is reported as inconclusive: 28.2 µM [inhibitor, partial curve].
For `COc1ccc(/C=C2\NC(=S)N(CC3CCCO3)C2=O)c(OC)c1C` (stereo not given), the Potency was inconclusive: 50.1 µM [inhibitor, single point].
In the case of `N#C/C(=C\c1ccc(-c2cccc([N+](=O)[O-])c2)o1)C(=O)NCCN1CCOCC1`, the Potency is reported as inconclusive: 31.6 µM [inhibitor, single point].
`O=C(CNC(=O)C12CC3CC(CC(C3)C1)C2)N/N=C\c1ccco1` was tested, and the Potency was inconclusive: 17.8 µM [inhibitor, partial curve].
With `Cc1coc(C)c1C(=O)CC1(O)C(=O)N(CCc2ccccc2)c2ccccc21` (stereo not given) the Potency was inconclusive: 50.1 µM [inhibitor, single point].
In the case of `COc1ccccc1-[n+]1c(C)cc(/C=C2\Sc3ccccc3N2C)cc1C`, the “activity change, negative = displacement” value is reported as inactive: -17.9%.
In the case of `CCCOc1ccc(C2c3c(-c4ccccc4O)n[nH]c3C(=O)N2Cc2ccncc2)cc1OCC` (stereo not given), the “activity change, negative = displacement” value is reported as inactive: -6.82%.
`O=C(c1cc(COc2cccc(C(F)(F)F)c2)on1)N1CCC(c2ccncc2)CC1` was tested, and the “activity change, negative = displacement” value was inactive: -8.56%.
For `Cc1cccc(OCCNC(=O)c2ccc(Oc3ccc(C(F)(F)F)cc3[N+](=O)[O-])cc2)c1`, the Potency was inconclusive: 12.6 µM [inhibitor, partial curve].
In the case of `C#CCNC(=O)C1=C[C@H](c2ccc(C(F)(F)F)cc2)C[C@H](OCc2ccc(CO)cc2)O1`, the Potency is reported as inconclusive: 31.6 µM [inhibitor, partial curve].
For `Nc1cccc(NP(=O)(c2ccccc2)c2ccccc2)c1`, the “activity change, negative = displacement” value was inactive: -8.92%.
`O=C(Cn1cc2c(n1)CCCC2)NCc1cccs1` was tested, and the “activity change, negative = displacement” value was inactive: -6.7%.
For `CCN1C(=O)CSC1=NC12CC3CC(CC(C3)C1)C2`, the Potency was inconclusive: 35.5 µM [inhibitor, partial curve].
